Out of some 76,000 compounds screened, about 1,900 (2.5%) were called active. The shares of active, inactive and inconclusive entries below differ from those in the screen. Calls come from the whole dose curve; as a rule, active = well fitted inhibition curve with a large enough effect; inconclusive = small, poorly fitted or top-dose-only effect; inactive = flat fitted curve, though single readings scatter. A potency beside an inconclusive call is a rough fit, not a confirmed value.
What follows are compounds tested against Luciferin 4-monooxygenase (Photinus pyralis) (UniProt P08659) (assay: Firefly luciferase inhibition profiling of diverse chemical library using quantitative high-throughput screening). Conditions: purified P. pyralis luciferase, luminescence, biochemical; series mostly up to 115 µM.
In short: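 Inhibitors were tested against purified firefly luciferase in a biochemical, low-substrate format (both substrates at 10uM) and luminescence measured with a CCD imager.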
Note: nearly all actives have a fitted effect of over 65% in size.
Potency is the fitted concentration of half-maximal effect; tags give direction and shape of the fitted curve.

Sequence of UniProt P08659 (P08659 whole entry, looked up): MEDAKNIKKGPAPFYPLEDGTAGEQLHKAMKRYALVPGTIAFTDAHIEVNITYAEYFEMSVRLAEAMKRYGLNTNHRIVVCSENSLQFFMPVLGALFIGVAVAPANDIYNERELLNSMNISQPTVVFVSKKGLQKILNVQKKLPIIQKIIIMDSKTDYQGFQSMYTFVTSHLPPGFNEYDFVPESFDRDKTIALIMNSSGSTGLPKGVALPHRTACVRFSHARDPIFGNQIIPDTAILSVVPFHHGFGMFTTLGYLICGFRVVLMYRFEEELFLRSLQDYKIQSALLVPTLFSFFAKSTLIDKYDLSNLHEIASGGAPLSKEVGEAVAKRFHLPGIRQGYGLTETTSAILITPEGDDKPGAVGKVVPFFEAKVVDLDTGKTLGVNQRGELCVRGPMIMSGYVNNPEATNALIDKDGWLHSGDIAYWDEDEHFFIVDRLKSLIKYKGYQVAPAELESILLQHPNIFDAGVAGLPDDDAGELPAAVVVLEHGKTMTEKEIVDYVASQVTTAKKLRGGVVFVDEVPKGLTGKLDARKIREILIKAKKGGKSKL

SMILES | Potency
CCOC(=O)c1ccc(NC(=O)Cn2ccn3nc4c(c3c2=O)CCCCC4)cc1 | inactive
CN1Cc2nc(Nc3ccccc3F)ccc2OCC1=O | inconclusive: 100 µM [inhibitor, partial curve]
CCOCCCNC(=O)C1CCc2ncc(-c3ccsc3)n2C1 (stereo not drawn) | inactive
COC(=O)[C@@H]1Cc2c([nH]c3ccccc23)[C@H]2C[C@@H](NCCNC(C)=O)C[C@@H](c3ccccc3)N21 | inconclusive: 79.4 µM [inhibitor, partial curve, poor fit]
O=C(NCCc1ccc(Cl)cc1)c1nc(-c2ccc(Cl)cc2)c2ccccn12 | inactive
O=C(Nc1ccc(Cl)nc1)c1cccn2cncc12 | inconclusive: 50.1 µM [inhibitor, partial curve]
CC(NC(=O)Cc1ccc(N(Cc2ccc(F)cc2)C(=O)c2ccco2)cc1)c1ccccc1 (stereo not drawn) | inactive
Cc1cc(C)n(C2CCN(c3nccc(-c4ccccn4)n3)C2)n1 (stereo not drawn) | active: 44.7 µM
COc1ccc(-c2cc(N3CCCC(NC(=O)Cc4ccc(OC)c(OC)c4)C3)n[nH]2)cc1 (stereo not drawn) | inconclusive: 35.5 µM [inhibitor, partial curve]
Cn1cccc1CN1CCC2(CC1)COc1ccccc1C(=O)N2 | inactive
CC1=NS(=O)(=O)N(C)C=C1C(=O)OCc1nc(-c2ccc3c(c2)OCO3)no1 | inconclusive: 22.4 µM [inhibitor, partial curve, poor fit]
Cc1ccc(C2Cn3nnc(C(=O)N4CCC(C(=O)Nc5ccc(C)c(F)c5)CC4)c3CO2)cc1 (stereo not drawn) | inconclusive: 39.8 µM [inhibitor, partial curve]
Oc1cc(-c2nc3ccccc3s2)cc2c1OCCN(Cc1ncccn1)C2 | inconclusive: 44.7 µM [inhibitor, partial curve]
CN1CCN(CC(=O)N2CCCC(c3ccc(Cl)cc3)C2)C1=O (stereo not drawn) | inactive
CN(CC1CCOCC1)C(=O)c1cccc(Cl)c1 | inactive
Cc1ccc(CN2CCc3nc(C(=O)Nc4cccnc4)oc3CC2)o1 | inconclusive: 70.8 µM [inhibitor, partial curve, poor fit]
Cc1ccc(NC(=O)N2CCc3c(C(=O)NC(C)c4cccnc4)cccc32)cc1 (stereo not drawn) | active: 0.398 µM
O=C(COc1ccc(Cl)cc1Cl)N1CCCCC1c1ccccn1 (stereo not drawn) | inconclusive: 50.1 µM [inhibitor, partial curve]
O=C(O)COCC(=O)N[C@H]1CCN2C(=O)c3cc(-c4ccc(Cl)cc4)ccc3NC(=O)[C@H]12 | inconclusive: 44.7 µM [inhibitor, partial curve]
Cc1c(-c2ccccc2)[nH]c2c(CNC(=O)CCn3cnnn3)cc(Cl)cc12 | inconclusive: 10 µM [inhibitor, full curve]
Clc1ccc2oc([C@H]3CCN(Cc4ccccn4)C3)nc2c1 | inconclusive: 44.7 µM [inhibitor, partial curve]
CC(=O)N1CCC(C2CCN(Cc3cc(Cl)ccc3F)C2)CC1 (stereo not drawn) | inconclusive: 7.94 µM [inhibitor, full curve]
CN(Cc1cc(C(C)(C)C)n[nH]1)C(=O)[C@H]1CCC[C@@H](O)C1 | inactive

SMILES | Potency
COc1ccc(-c2cc(N3CCCC(NC(=O)c4cccc5[nH]ccc45)C3)n[nH]2)cc1 (stereo not drawn) | active: 14.1 µM
O[C@@H]1C[C@@H](c2nc(-c3ccc4c(c3)OCO4)no2)N(CCCc2ccccc2)C1 | active: 35.5 µM
C[S+](=O)([O-])CCn1ncc2cc(OCc3cccc(-c4cccc(CO)c4)c3)ccc21 | inconclusive: 15.8 µM [inhibitor, full curve, poor fit]
COc1cc(NC(=O)Nc2nc3c(s2)C[C@]2(C)CC[C@@H]4[C@H](OC(=O)[C@H]4C)[C@H]2[C@@H]3C)cc(OC)c1 | inconclusive: 35.5 µM [inhibitor, partial curve]
COc1cccc(S(=O)(=O)N2CCN(C3CCN(CCC(C)C)C3=O)CC2)c1 (stereo not drawn) | inactive
CCN(C)C(=O)CCc1c(C)nn(-c2ccccc2)c1Oc1ccc(F)cc1F | inactive
C[C@@H]1C(=O)O[C@H]2[C@H]1CC[C@@]1(C)Cc3sc(Nc4ccc(F)cc4)nc3[C@@H](C)[C@H]21 | inconclusive: 70.8 µM [inhibitor, partial curve]
CCCCc1cc(C[C@@H]2C[C@H](NC(=O)C(C)(C)C)C2(C)C)no1 | inconclusive: 89.1 µM [inhibitor, partial curve]
CC(=O)NC1(C)CN(Cc2ccc(-c3cccc(C(F)(F)F)c3)s2)C1 | active: 12.6 µM
CCCS(=O)(=O)N1CCCN(Cc2ccncc2)C(c2ccccc2)CC(=O)NCC1 (stereo not drawn) | inconclusive: 44.7 µM [inhibitor, partial curve]
CCN1c2cc(C(=O)Nc3ccc(C)cc3)ccc2C(=O)N2CCCCCC21 (stereo not drawn) | inconclusive: 35.5 µM [inhibitor, partial curve, poor fit]
COc1ccc(N2CC(C(=O)N3CCC(C(=O)NCC(F)(F)F)C3)NC2=O)cc1 (stereo not drawn) | inactive
CC(=O)NC1(C)CCCN(Cc2ccc(Oc3ccccc3)cc2)C1 (stereo not drawn) | inconclusive: 0.708 µM [inhibitor, full curve]
O=C(Cc1cccs1)N1CCC(n2cc(-c3nc(-c4ccccc4)no3)nn2)C1 (stereo not drawn) | inconclusive: 79.4 µM [inhibitor, partial curve]
CCCNc1cc(N2CCC(CCC(=O)N3CCN(c4ccc(F)cc4)CC3)CC2)ncn1 | inconclusive: 44.7 µM [inhibitor, partial curve]
COc1ccc(-n2nc(C)c([C@@H]3C=C[C@@H](NCc4cccc(Cl)c4)C3)c2C)cc1 | active: 39.8 µM
COc1ccc(CN2CC(Oc3ccc(F)c(C)c3)C2)cc1 | inactive
CCOc1ccc(C2Cn3nnc(-c4nc(-c5cccc(C)c5)no4)c3CO2)cc1 (stereo not drawn) | inconclusive: 31.6 µM [inhibitor, partial curve, poor fit]
O=S(=O)(c1ccc2c(c1)CCC2)N1CCCC(Cn2c(C3CC3)nc3cccnc32)C1 (stereo not drawn) | inactive
COCCn1cnc2ccc(-c3ccccc3Oc3ccccc3)nc2c1=O | inconclusive: 126 µM [inhibitor, single point]
Cc1ccc(OCC(=O)c2ccc3c(c2)N(C(C)C(=O)NCC2CCCO2)C(=O)CO3)cc1C (stereo not drawn) | inactive
Cn1c2c(c3ccccc31)CN(C(=O)Nc1ccc(Cl)cc1Cl)CC2 | active: 25.1 µM
CN(C)c1ccc(-c2noc([C@@H]3CCCN3Cc3ccc(CO)o3)n2)cn1 | inconclusive: 79.4 µM [inhibitor, partial curve]

SMILES | Potency
COCCOC1CCN(C(=O)Nc2ccc3c(c2)OCCO3)CC1 | inconclusive: 28.2 µM [inhibitor, partial curve, poor fit]
COc1ccc(CN2CCOc3nc(-c4ccc(C(=O)N(C)C)cc4)ncc3C2=O)cc1 | inconclusive: 79.4 µM [inhibitor, partial curve]
O=C(NCCN1CCOCC1)c1ccc(-c2ccc(N3CCCCCC3)nc2)cc1 | inconclusive: 50.1 µM [inhibitor, partial curve]
COc1ccc(C(=O)N2C[C@@H]3OCC(=O)N(Cc4ccc(OC(F)(F)F)cc4)[C@@H]3C2)cc1 | inactive
CS(=O)(=O)N1C[C@@H](COCC2CC2)[C@H](c2ccccn2)C1 | inactive
Cc1cn2nc(-c3nc(C4CCCN(C(=O)Cc5cccc(F)c5)C4)no3)cc2c(=O)[nH]1 (stereo not drawn) | inconclusive: 39.8 µM [inhibitor, partial curve]
COCCOc1ccc2c(n1)CCN(C(=O)Nc1ccccc1C)C2 | inconclusive: 44.7 µM [inhibitor, partial curve]
O=[S+]1([O-])NC2(CCN(Cc3ccncc3)CC2)CNc2ccccc21 | inactive
O=C(Nc1ccc2c(N3CCCCC3)ncnc2c1)c1ccsc1 | inconclusive: 50.1 µM [inhibitor, partial curve]
O=C(NCCCc1ccccn1)c1ccc2nc(-c3ccc(F)cc3)cn2c1 | inconclusive: 14.1 µM [inhibitor, partial curve]
O=C(NC1CCN(c2cnn(Cc3ccccc3)c(=O)c2)CC1)c1ccoc1 | inactive
Cc1ccc2nc(CO[C@H]3CN(Cc4ccc(C(=O)O)cc4)C[C@H]3F)[nH]c2c1 | inconclusive: 79.4 µM [inhibitor, partial curve]
COc1ccc(NC(=O)c2ccc3c(c2)N(C(=O)c2ccc(F)cc2)CC3)cc1 | inconclusive: 15.8 µM [inhibitor, full curve]
CCN1C(=O)Cc2cc(C(=O)Nc3ccccc3)ccc21 | inconclusive: 44.7 µM [inhibitor, partial curve, poor fit]
O=C(Nc1ccc(F)c(F)c1)C1CCN(C(=O)c2ncn3c2COC(c2ccccc2)C3)CC1 (stereo not drawn) | active: 1 µM
Cn1nc(C(=O)N2CCC(OCCOc3ccccc3)CC2)c2ccccc21 | active: 39.8 µM
Cc1ccc(C(=O)NCCn2cccc2-c2nc(-c3ccccc3)no2)cc1 | active: 0.891 µM
O=C(c1ccc2nc(-c3ccc(F)cc3)cn2c1)N1C[C@@H]2CCCN[C@@H]2C1 | inconclusive: 79.4 µM [inhibitor, single point]
Cc1ccc(NC(=O)N2CCc3c(C(=O)NCc4ccncc4)cccc32)cc1 | active: 0.562 µM
Cc1cc(C(=O)N2C[C@@H]3CCCN4CCC[C@@H]([C@H]34)[C@H]2CCCC(=O)NCc2ccccc2)nn1C | inactive
Cc1ccc(-c2ncc(NC(=O)c3cc(F)ccc3F)cn2)cc1 | inconclusive: 1.26 µM [inhibitor, full curve]
CN1CC2(CCN(C(=O)c3cc4ccccc4[nH]3)CC2)CC1C(=O)N1CCOCC1 (stereo not drawn) | inconclusive: 11.2 µM [inhibitor, full curve]

Reference: PubChem BioAssay AID1347043 (National Center for Advancing Translational Sciences (NCATS), 2019)
